B1: CPEB3 Ribozyme (parent)
chain: UAACAGGGGGCCACAGCAGAAGCGUUCACGUCGCAGCCCCUGUCAGAUUCUGGUGAAUCUGCGAAUUCUGCUGUAUAUCUC

The source gives no read counts; variants with many changes may rest on few reads.

In this data set the parent is B1. Put plainly: self-cleavage, relative activity (ratio to wild type); higher = more cleavage; in vitro, sequencing. In a few lines:
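After error-prone PCR and barcoding, CPEB3 ribozyme mutant libraries were transcribed with T7 RNA polymerase at 37°C for 5 hours, then given 15 min with DNase I before an EDTA stop, and they cleaved during both steps. Reverse transcription with template switching preceded Illumina sequencing. Relative activity divides a variant's cleaved/total read fraction by the unmutated ribozyme's. At least 5 reads were required per variant, and three batches were averaged.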
With C11U U31C U60C C68A, the self-cleavage was determined as 0.05.
The figure for C11U A47C U60C is 0.12.
To C12G C17A U26A U31G G33C U48C U80C belongs 0.04; to C11U U41C U43C, 0.22; to C12U A18G A64G, 0.7.
To C12G A13C G19C C38A U67C belongs 0.05; to C11U U25C A45G U76A U78C, 0.16; to C12A C40A A45U, 0.
Consider C12U A21G A35C U69A, for which the self-cleavage was determined as 0.1.
As for C11U U25C U41A U66C, the self-cleavage turned out to be 0.03.
To C12G A45C A77G belongs 0.08; to C11U U69G U76C, 0.23.
For the variant C11U A18G A20G G24U U43C U72C, the self-cleavage came to 0.06.
In the case of C12U A18U U25C U54C U69C U76A, the self-cleavage stood at 0.06.
For C12U C40G U43C U54A U76C, the self-cleavage was found to be 0.19.
Consider C11U U43C U48C U51A U80C, for which the self-cleavage is 0.08.
To C12A A18G A28G A35U U43C belongs 0.13; to C12A A45U A47G A56G U67C U80A, 0.1.
To C11U A18C U51A belongs 0.12; to C11U A18U A56G C62G, 0.12.
The figure for C12A C17G G22U A28G is 0.23; for C12U A28G C29A U76A it is 0.35; for C11U U48C A65G it is 0.08.
As for C11U U31A U67C U78A, the self-cleavage was 0.15.
The figure for C11U A18G A35U A45G U58C is 0.15; for C12A A35U U43C U80C it is 1.11.
For the variant C11U U41C U43C U54C A56G U60C U69C, the self-cleavage came out at 0.07.
To C12U A28U A35G U43A A56G U69C U78C belongs 0.47; to C11U U41A U43C U54C, 0.14; to C12G A13G U78A, 0.52.
On to C12G U25C A64U, for which the self-cleavage was found to be 0.07.
Consider C12A U48C A64G, for which the self-cleavage was determined as 0.29.
To C11U A28U U69A U72C belongs 0.07; to C11U A21G C38U, 0.09; to C12U A18G A47U U49A A64G, 0.18.
Consider C12G C23A A56U U69A, for which the self-cleavage was 0.08.
Turning to C12U A13U A18U A45G, the self-cleavage is 0.42.
As to C12U A20G A28G, the self-cleavage stood at 0.76.
Take C11U U25C U80A: the self-cleavage was 0.4.
The figure for C11U U31C U74A is 0.54; for C11U A28U U41C A47G A57G C81U it is 0.07.
To C11G U72C U80A belongs 0.55.
With C12A U54A U80A, the self-cleavage came out at 1.2.
The figure for C12U A35U A47G G53A U58C A75G is 1.26; for C11U A21G G24A U31C U43C A45G it is 0.26; for C12U A45G U60C A64U U69A it is 0.17.
As to C12U A15G U25C U54C U60C, the self-cleavage was 0.08.
The figure for C11U A45C U54C is 0.29; for C11G U66C U69A U74C it is 0.1; for C12A A13G C29A A64U it is 0.29.
The figure for C12U A18U U74C U78C is 1.08; for C11U C38U U51C it is 0.17.
To C12G C40U U41A U43A A57G U60C belongs 0.15; to C12G A35G U60A U72C, 0.12.
Take C12A U51C U69A U78C: the self-cleavage was found to be 0.91.
The figure for C12A A57C A75U is 0.46; for C12G A13C C44U it is 0.08.
On to C12G A28U U51A U66C U78C, for which the self-cleavage was 0.07.
The figure for C12U A20U U25C is 0.1.
To C12G A15G A21G U31C U54C A65G U67C belongs 0.
To C12U A15G G19A A28U belongs 0.07.
As for C12U A18G U31C U41A A65G, the self-cleavage worked out at 0.03.
To C11U U41A A45G U49C U51G belongs 0.13; to C12A U49C U60A, 0.15.
To C11U U66A U80C belongs 0.1; to C12A A13G U74C A75G, 1.01.
In the case of C11U C12U C27A U31A U60A, the self-cleavage stood at 0.04.
The figure for C12A U25A A57G U78C is 0.14; for C11U U41A U69C it is 0.16; for C12U A28G U43C it is 0.28.
As to C11U U25C U49C, the self-cleavage worked out at 0.23.
The figure for C12U A15C A57G U78C is 1.21; for C11U C17U U49C U67A U80C it is 0.29; for C12G A18C U54C U66C G73A it is 0.12.
For the variant C11U U43A A45G U66C, the self-cleavage was 0.04.
Take C12A A28U U43A: the self-cleavage worked out at 1.09.
On to C12G A35G C38G U60C C71U, for which the self-cleavage was 0.04.
The figure for C11U A35U U41A A47U is 0.07.
To C12A U26G A45U belongs 0.14; to C12A U26C U41A U69C, 0.16.
The figure for C11U A20G A21G U51C U66C A77G is 0.05; for C12U G19C A21G U72A it is 0.06.
As to C12U A18U U43A A45G A57G, the self-cleavage came to 0.23.
